# The other results are listed elsewhere or left out.
# Test system: PfAP2-HC AP2 domain (GST-tagged)
# Assay: gcPBM binding intensity (ln(normalized median fluorescence intensity)); higher = stronger DNA binding
# Outline: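 In this array assay, P. falciparum DNA-binding domains with a GST tag, expressed in E. coli, were applied for 1 h to primer-extended double-stranded 36-bp intergenic genomic probes and negative controls on an Agilent 4 × 180k array. Bound protein was visualised with Alexa488 anti-GST antibody at 488 nm. Binding intensity is the highest Masliner-normalised natural-log median intensity across replicate spots of either probe orientation.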
row,Sequence,gcPBM binding intensity (ln)
1,ATCATTTATATTTTATGTACATATATAATTATATTT [XGTACX_site2129],9.92
2,AAAAAAATAAATAAATGTACACATATATATATATAT [XGTACX_site4350],9.81
3,TAGAGGAATATAATATGTACATAATATAATGTATAT [XGTACX_site2838],9.86
4,TTATGTCTAATGAAATGTACATGAATAAATTAAAGT [XGTACX_site8138],9.78
5,AGTGAAATTTTAGTCACACAGTTTTATCTTTAAGAA [CACACA_site5202],9.51
6,AATTATATAAGCCACGCATGTGTGCATAAAAATACA [TGCATGCA_site114],9.79
7,AATGAGAATTTTATTACACACTTTAATATATTTTCA [CACACA_site784],9.66
8,AATTTTCAATAGTATACACACAATTCTATAAATATA [CACACA_site6650],9.61
9,CACGTGAAAATACAAGCATGCAAGCTTTTTTTTTCT [TGCATGCA_site642],9.46
10,AATTTTTTTATAGCACGTACAAAAATACAAAATACA [XGTACX_site1569],9.51
11,AAAAAAAAAAAGAAGGGTACATATTATATATAATAT [XGTACX_site6204],9.66
12,TATATATAAACATAATGTACATATAATAAGTAATAT [XGTACX_site497],9.8
13,AGCCCAAAAAAGTAGACATGCAAAAACTTTACAACT [TGCATGCA_site550],9.57
14,CGATTACTAATTTTTAGTACATATAATCAATATGTA [XGTACX_site7857],9.58
15,ATCTATTTCTATTGTTGTACTTATTTTTCATTGTTT [XGTACX_site6942],9.94
16,ATGTAGCCTTACGCTTGTACGAATATCTTAATTTTT [XGTACX_site4331],9.67
17,AAAAAAAATAGACACACACACATACACATAAATATA [CACACA_site7742],10.5
18,AGGGTTACAAGAGGAACACACAAAAAAATAAATAAA [CACACA_site1436],10
19,ATTAAATCTATATATACACACATGTTTGGTATATTC [CACACA_site2657],9.87

row,Sequence,gcPBM binding intensity (ln)
1,TTTGTAATAAACTACTTTTTTTTTTTTTTTTTTTTT [CACACA_negctrl_site571],9.2
2,TTTATATTACAATAATATATTAAAAAATAAAATATA [TGCATGCA_negctrl_site18],9.17
3,TATACAATATAAAATACACACGCACCCAAAAAAAAA [CACACA_site9174],10.3
4,ATTTTTTTATTTGATTGTACAATTTTCTTTCAAAAT [XGTACX_site2902],9.71
5,ATATAATGTGTAGGCCGTATTTACGTTTGGCAATCA [CACACA_negctrl_site1130],9.99
6,TATAATATAATATATATATATATATATATATAAGAA [CACACA_negctrl_site78],9.76
7,TTCATATAAATACATGCACACAAAAATATCAATACA [CACACA_site8753],10
8,ATATATTTTATTACCAGTACATATATTAAAATAATA [XGTACX_site8440],9.39
9,ATTAAAGAGATATATACACACATTATGGGGGAATAA [CACACA_site6226],9.85
10,TGAGGAAACATGAGATGTACATATAAATTTTTTTTT [XGTACX_site2595],9.56
11,CCTAAATATTTTTTATGTACATATTTATCTAAATTT [XGTACX_site6835],9.78
12,ATAGAAATTATAAATAGTACATAATAAAAATGAGCA [XGTACX_site822],10
13,TCGTTTCCTTAAAATTGTACTTTTTTTTTTTTTTTT [XGTACX_site64],9.56
14,TATTATAAAGAAATTACACACATGCAATGAAAAAAA [CACACA_site1697],9.85
15,AGAGTATATATATATGCATGCATATCTCATATTTAT [TGCATGCA_site509],9.94
16,TAATGATAAATACATACACACAAAAAATAATATATA [CACACA_site2576],10.1
17,TGTTATTATTTGTACACACACATATAGATCCTTGTT [CACACA_site7667],10.2
18,AAACAAAATGGTAACACACACATATATAAATATGTA [CACACA_site6994],10.2
19,TAAGAAATAAATAGTACACACATAGACACCCACCCA [CACACA_site8429],11.3

row,Sequence,gcPBM binding intensity (ln)
1,TAATAAAAGATATATACACACAAATAAATAAATAAA [CACACA_site7818],10
2,AAAAAAAAATATATATATATATATATAAATAAATTT [CACACA_negctrl_site519],9.8
3,ATAATATAAACATATTGTACACATATATTGCTATTT [XGTACX_site2799],9.82
4,AAATATAAAAAAAATATATAATTTTTACATCGAATT [CACACA_negctrl_site544],9.53
5,AACGAGCAAGACGGGGTGCACACAAACTAATATGCC [GTGCAC_site9436],10
6,TTCTATGAATTCATAGTGCAAATGAGTTATTTTTTC [GTGCAC_site9709],9.52
7,TTATTATTGTTATGTTGTACTTTTACAAACTTTTTG [XGTACX_site8797],9.7
8,AAGAAAATAGGGTTCATAGGATTATACTTTTGGAAT [TGCATGCA_negctrl_site80],9.66
9,TATTTTATCTAAGGATGTACATTATTAAGAAAATGT [XGTACX_site6123],9.43
10,ATATATTTATTAAGGTGTACAAAAATTATGTTGCAT [XGTACX_site7546],9.61
11,CTTTTTTAAATTATTGCACACAAAAATGAAAGGAAA [CACACA_site8412],9.67
12,ACATCAAGCAGACACACACACACACCCACCCACCGA [CACACA_site371],10.7
13,TAGAAATATAATTAATGTACATATGATATTATATAT [XGTACX_site923],9.62
14,ATTTATTTATATAGAAGTACATATTTATTTATATAT [XGTACX_site6283],9.53
15,TTGTGTTCTTATTTTTACACCGAAAAATATTAAAAG [CACACA_negctrl_site535],9.53
16,CCTTTATACATTTTCTGTACTGATATATATTAAAAA [XGTACX_site8467],9.51
17,GTATGAAAAAAAATATGTACACATATATATTTGGTA [XGTACX_site6309],9.79
18,ATATATATATATACAACACACATGTAATATATAAAT [CACACA_site3294],9.94

# Source: the supplement of paper PMC11417369
